Hit rate of the full screen: of about 310,000 compounds, about 2,200 (0.71%) showed an effect of 50% or more. The effect is printed as a negative number. Some of the results follow.

The values that follow come from article PMC4336329 (PLoS ONE, 2015).

The target of the assay is human ether-à-go-go-related gene (hERG) potassium channel (human, UniProt Q12809). Put plainly: primary screen, population patch clamp on CHO cells stably expressing hERG.
human ether-à-go-go-related gene (hERG) potassium channel, sequence (Q12809 whole entry, looked up): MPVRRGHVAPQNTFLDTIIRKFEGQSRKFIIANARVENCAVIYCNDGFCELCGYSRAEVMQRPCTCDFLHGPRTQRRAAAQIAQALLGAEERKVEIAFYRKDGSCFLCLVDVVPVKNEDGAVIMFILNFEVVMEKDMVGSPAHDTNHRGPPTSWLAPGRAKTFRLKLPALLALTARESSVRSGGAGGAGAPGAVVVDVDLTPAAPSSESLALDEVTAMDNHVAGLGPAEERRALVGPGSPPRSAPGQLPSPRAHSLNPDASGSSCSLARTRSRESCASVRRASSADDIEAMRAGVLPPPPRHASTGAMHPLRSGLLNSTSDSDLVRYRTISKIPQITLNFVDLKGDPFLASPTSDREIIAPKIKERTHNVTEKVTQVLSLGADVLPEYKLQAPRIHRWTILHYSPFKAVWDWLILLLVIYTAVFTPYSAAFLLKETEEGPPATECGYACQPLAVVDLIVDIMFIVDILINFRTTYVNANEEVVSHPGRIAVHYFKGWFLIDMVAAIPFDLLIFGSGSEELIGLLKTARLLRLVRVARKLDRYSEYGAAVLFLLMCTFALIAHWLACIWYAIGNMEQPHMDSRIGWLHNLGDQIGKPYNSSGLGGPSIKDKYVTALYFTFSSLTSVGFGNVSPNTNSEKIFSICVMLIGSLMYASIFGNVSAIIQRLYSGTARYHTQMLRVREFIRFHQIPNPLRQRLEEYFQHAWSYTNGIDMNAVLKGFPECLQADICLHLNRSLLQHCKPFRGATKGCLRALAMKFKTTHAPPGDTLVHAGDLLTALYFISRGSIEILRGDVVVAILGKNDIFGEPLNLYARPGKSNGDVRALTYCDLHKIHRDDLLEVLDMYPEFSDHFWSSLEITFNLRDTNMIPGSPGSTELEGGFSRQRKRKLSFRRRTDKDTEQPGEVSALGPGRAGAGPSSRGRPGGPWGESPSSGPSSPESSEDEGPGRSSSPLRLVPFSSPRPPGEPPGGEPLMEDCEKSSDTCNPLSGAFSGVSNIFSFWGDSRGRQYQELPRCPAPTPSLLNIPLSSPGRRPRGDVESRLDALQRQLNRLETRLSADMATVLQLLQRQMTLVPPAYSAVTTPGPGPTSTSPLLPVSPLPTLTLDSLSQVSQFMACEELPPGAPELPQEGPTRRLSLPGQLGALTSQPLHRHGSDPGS
`COc1ccc(CCC(=O)N(C)CC(=O)Nc2ccc(N3CCOCC3)cc2)cc1`: the “hERG current change (%, negative = inhibition) at 1uM” value is reported as -2.03%.
For `OCC[C@@H]1C[C@H](O)[C@@H](O)[C@]2(CCCO2)O1` the value was 19.7%; for `OCc1ccccc1N=c1ssnc1Cl`, 17%; for `Cc1ccc(C(=O)c2ccc([N+](=O)[O-])cc2)c(C)c1`, 12.9%.
On to `O=[N+]([O-])c1cccnc1-n1cnc2ccccc21`, for which the “hERG current change (%, negative = inhibition) at 1uM” value was 5.48%.
Under `COc1ccc(N(CC(=O)Nc2ccc(F)c(Cl)c2)S(=O)(=O)c2c(C)noc2C)cc1` stands -14.7%; under `Cc1ccc2c(-c3ccc([N+](=O)[O-])cc3)cc(=O)[nH]c2c1`, 3.26%; under `O=C(c1ccccc1O)N1N=C(C(F)(F)F)CC1(O)c1ccc([N+](=O)[O-])cc1` (stereo not shown), -4.67%.
For the molecule `CCN(Cc1ccccc1)C(=O)c1oc2ccc(S(=O)(=O)N3CCOCC3)cc2c1C`, the “hERG current change (%, negative = inhibition) at 1uM” value was found to be 11.3%.
Take `CCN(CC)CCN1C(=O)C(=O)/C(=C(/O)c2ccc(S(=O)(=O)N3CCOCC3)cc2)C1c1ccccc1` (stereo not shown): the “hERG current change (%, negative = inhibition) at 1uM” value was 15.3%.
For `O=S(=O)(c1ccccc1Br)N1CCC(O)(c2cccnc2)CC1` the value was 7.25%.
In the case of `O=C(Cn1nc(-c2ccccc2)c2ccccc2c1=O)Nc1ccc2c(c1)nc1n2CCOC1`, the “hERG current change (%, negative = inhibition) at 1uM” value turned out to be 13.3%.
Consider `CCC(=O)Nc1nc2c(s1)COc1ccccc1-2`, for which the “hERG current change (%, negative = inhibition) at 1uM” value was determined as 12.5%.
On to `CCCc1ccc(-c2ccc(/C=C/C(=O)O)cc2)nc1`, for which the “hERG current change (%, negative = inhibition) at 1uM” value was 4.8%.
As to `Cc1ccc(S(C)(=O)=O)cc1C(=O)Nc1cccc(S(=O)(=O)N2CCCCCC2)c1`, the “hERG current change (%, negative = inhibition) at 1uM” value was -33.5%.
Regarding `CC(C)CC(=O)N(c1ccc(F)cc1)C1C=CS(=O)(=O)C1` (stereo not shown), the “hERG current change (%, negative = inhibition) at 1uM” value is listed as 13%.
For the molecule `Cc1ccc(C(O)(C(=O)NNc2ccc3ccccc3[nH+]2)c2ccc(C)cc2)cc1.[Cl-]`, the “hERG current change (%, negative = inhibition) at 1uM” value stood at 12.6%.
On to `COc1cc(Cl)c(NC2=CC(=O)C(=O)c3ccccc32)c(OC)c1`, for which the “hERG current change (%, negative = inhibition) at 1uM” value was 9.17%.
Turning to `COC(=O)c1c(C)n(Cc2ccc3c(c2)OCO3)c2ccc(O)cc12`, the “hERG current change (%, negative = inhibition) at 1uM” value is recorded as 9.99%.
`Cc1ccc(CCNC(=O)CCn2ccc3cc(S(=O)(=O)N4CCCC4)ccc32)cc1`: the “hERG current change (%, negative = inhibition) at 1uM” value was found to be 8.83%.
For the molecule `CC(=O)NNC(=O)CSc1nnc(-c2ccccc2)c(-c2ccccc2)n1`, the “hERG current change (%, negative = inhibition) at 1uM” value is on record as 15.6%.
For `CCN(CC)S(=O)(=O)c1ccc(N2CC(C(=O)NC3(C)CCS(=O)(=O)C3)CC2=O)cc1` (stereo not shown) the value was 15.9%.
Take `COc1ccccc1C1NC=C([N+](=O)[O-])C=C1[N+](=O)[O-]` (stereo not shown): the “hERG current change (%, negative = inhibition) at 1uM” value came to 6%.
For the molecule `Cc1nnc(SCCn2c(N(C)Cc3ccccc3)nc3c2c(=O)[nH]c(=O)n3C)s1`, the “hERG current change (%, negative = inhibition) at 1uM” value was -8.84%.
On to `COc1ccc(CNC(=O)COC(=O)C2CC3C=CC2C3)cc1` (stereo not shown), for which the “hERG current change (%, negative = inhibition) at 1uM” value is recorded as 11.8%.
With `CC(=NCCCn1ccnc1)c1c(O)n(-c2ccccc2)c(=O)[nH]c1=O`, the “hERG current change (%, negative = inhibition) at 1uM” value came to 12.1%.
Consider `C/C(=N\NC(=O)CN1CCOCC1)C(C)(C)C`, for which the “hERG current change (%, negative = inhibition) at 1uM” value turned out to be 19.8%.
As for `CCC(=O)c1ccc(OCCSc2ncccn2)cc1`, the “hERG current change (%, negative = inhibition) at 1uM” value is on record as 0.665%.
Under `COc1ccc(C(C(=O)NCc2ccccc2)N(Cc2ccc3c(c2)OCO3)C(=O)c2cnccn2)cc1` (stereo not shown) stands -3.41%; under `C=CCCOc1ccccc1C(N)=O`, 17.2%; under `Cc1cc(C(=O)COc2ccccc2Cl)c(C)n1-c1ccc2c(c1)OCO2`, 19%.
For the molecule `Cc1ccc(NC(=O)Nc2c(C)n(C)n(-c3ccccc3)c2=O)cc1C`, the “hERG current change (%, negative = inhibition) at 1uM” value is reported as 10.2%.
As for `CCCNC1=C(C)C(=O)C2=C(C1=O)C(COC(N)=O)[C@]1(OC)C3NC3CN21` (stereo partly shown), the “hERG current change (%, negative = inhibition) at 1uM” value was determined as 10.1%.
With `COc1ccc(NC(=O)CN2C(=O)CSC(C)C2=O)c(OC)c1` (stereo not shown), the “hERG current change (%, negative = inhibition) at 1uM” value is reported as 7.04%.
Consider `O=C(CSc1nnc(NC2CCCCC2)s1)Nc1ccc(N2CCOCC2)cc1`, for which the “hERG current change (%, negative = inhibition) at 1uM” value came out at 1.16%.
Under `Br.CC[N+](CC)(CC)C/C=C/CN1CCCCC1.[Br-]` stands -0.121%; under `NC(=O)c1ccc(NC(=O)CN2CCN(c3ccc(Cl)cc3)CC2)cc1`, -27.2%; under `COc1cccc(-n2c(COc3ccccc3C)nnc2SCC(=O)O)c1`, 4.51%.
Under `COc1ccc(CCN(C)C(=O)C2CCN(Cc3ccccc3)CC2)cc1OC.O=C(O)C(=O)O` stands 7.22%.
With `O=C(COC(=O)c1ccccc1Oc1ccccc1)NC1CCS(=O)(=O)C1` (stereo not shown), the “hERG current change (%, negative = inhibition) at 1uM” value was 12.8%.
Take `CC(OC(=O)c1ccc(Cl)cc1)C(=O)NCc1ccc2c(c1)OCO2` (stereo not shown): the “hERG current change (%, negative = inhibition) at 1uM” value is 1.95%.
For the molecule `CN(C)Cc1cccc([N+](=O)[O-])c1O`, the “hERG current change (%, negative = inhibition) at 1uM” value is on record as 13.5%.
As to `Cc1[nH][nH]c(=O)c1C(c1cc2c(cc1Br)OCO2)c1c(C)[nH][nH]c1=O`, the “hERG current change (%, negative = inhibition) at 1uM” value is 16.6%.
For `CCC(CC)NC(=O)COC(=O)c1ccc2c(c1)C(=O)N(Cc1ccco1)C2=O` the value was 16.5%; for `COc1ccc(C(CNc2ccc(S(=O)(=O)N3CCCC3)cc2[N+](=O)[O-])N2CCCC2)cc1` (stereo not shown), 20%; for `Cc1ccc(NC(=O)C(=O)NCc2ccc(/C=C(/C#N)C(=O)NCc3cccnc3)o2)cc1C`, 5.03%.
In the case of `O=C(O)c1cnn2c1C(=O)N(Cc1cccs1)CC2`, the “hERG current change (%, negative = inhibition) at 1uM” value worked out at 14.9%.
For the molecule `Cc1cccc2sc(NC(=O)CSc3nnnn3C)nc12`, the “hERG current change (%, negative = inhibition) at 1uM” value is on record as 10.6%.
Consider `CCCNC(=S)NC1CC2CCCC(C1)N2Cc1ccc(F)cc1` (stereo not shown), for which the “hERG current change (%, negative = inhibition) at 1uM” value was -14.4%.
Regarding `Cc1ccc(C(=O)OC2CCCN(C)C2)cc1.Cl` (stereo not shown), the “hERG current change (%, negative = inhibition) at 1uM” value is reported as 8.13%.
Consider `Cc1c(CCOC(=O)c2cc([N+](=O)[O-])cc([N+](=O)[O-])c2)sc[n+]1CCCCS(=O)(=O)[O-]`, for which the “hERG current change (%, negative = inhibition) at 1uM” value came to 10.2%.
As to `CC1(C)C(=O)Nc2ccccc2N1C(=O)CSc1ncccn1`, the “hERG current change (%, negative = inhibition) at 1uM” value is on record as -16.1%.
In the case of `Cc1ccc(S(=O)(=O)NC2CCCCCCC2)cc1`, the “hERG current change (%, negative = inhibition) at 1uM” value came out at 16.5%.
For `CC1(C)CC(=O)CC(=Nc2ccc3[nH]c(=O)[nH]c3c2)C1` the value was 6.17%; for `COCCn1nnnc1C(c1cccs1)N1CCCC(C)C1.Cl` (stereo not shown), 4.83%.
Turning to `Cc1cc(C)c(C)c(S(=O)(=O)NCCN2CCOCC2)c1C`, the “hERG current change (%, negative = inhibition) at 1uM” value is reported as -2.4%.
For `COc1ccc(NC(=O)C/C(C)=N/NC(=O)c2cnccn2)cc1`, the “hERG current change (%, negative = inhibition) at 1uM” value is 10.1%.
Under `COc1ccc(CCN2CCCC(CN(C)Cc3cc(Cl)c(O)c(OC)c3)C2)cc1` (stereo not shown) stands 4.6%; under `COc1ccc(OC)c(NS(=O)(=O)c2cc(OC)ccc2OC)c1`, 7.83%; under `C/C(CC(=O)Nc1cc(C)ccn1)=N\NC(=O)c1ccncc1`, 12.1%.
Consider `CCC(Sc1ccc2nnc(-c3ccc(F)cc3)n2n1)C(=O)OC` (stereo not shown), for which the “hERG current change (%, negative = inhibition) at 1uM” value is reported as -29.2%.
For the molecule `COc1ccc(OCc2cc(C(=O)N(C)Cc3cnccn3)no2)c(Cl)c1`, the “hERG current change (%, negative = inhibition) at 1uM” value came out at 9.12%.
`COc1ccc(CCNC2=C(Cl)C(=O)N(Cc3ccccc3)C2=O)cc1OC`: the “hERG current change (%, negative = inhibition) at 1uM” value was determined as 7.63%.
As for `C=CCNc1nc2ccccc2nc1NS(=O)(=O)c1cccc(C)c1`, the “hERG current change (%, negative = inhibition) at 1uM” value amounted to 18.7%.
As to `CC(=O)CC(=O)NC1C2CC3CC(C2)CC1C3` (stereo not shown), the “hERG current change (%, negative = inhibition) at 1uM” value was found to be 13.3%.
Under `COc1ccccc1NC(=O)c1ccc(NC(=O)COC(=O)C(C)C)cc1` stands 13.2%; under `C/C(=N\OC(=O)Nc1ccc(Cl)cc1)c1ccc(F)c(F)c1`, 6.25%.
Turning to `CCN(CC)C1CCCCC1NS(=O)(=O)c1ccc(Cl)cc1` (stereo not shown), the “hERG current change (%, negative = inhibition) at 1uM” value was 6.21%.
For `O=C(NCCCN1CCCCC1)c1ccc(CS(=O)c2ccc(Cl)cc2)o1` (stereo not shown) the value was 2.37%; for `COc1cc(C(=O)Nc2ccc(C(C)=O)cc2)c(Br)c(OC)c1OC`, 11.6%.
For the molecule `COCc1nnc(NC(=O)c2ccc3c(c2)OCO3)s1`, the “hERG current change (%, negative = inhibition) at 1uM” value was 13.6%.
Regarding `CCOC(=O)c1c(NC(=O)COC(=O)c2ccccn2)sc(C)c1C`, the “hERG current change (%, negative = inhibition) at 1uM” value was 7.8%.
Regarding `Cc1ccc(C(=O)Nc2ccccc2C(=O)NCc2cccnc2)cc1`, the “hERG current change (%, negative = inhibition) at 1uM” value was -2.04%.
In the case of `CCOc1ccc(CN(C)CC(O)COC(c2ccc(OC)cc2)c2ccc(OC)cc2)cc1` (stereo not shown), the “hERG current change (%, negative = inhibition) at 1uM” value was -81.9%.
Under `Cc1ccc2c(c1)/C(=C/c1ccccc1F)C(=O)N2` stands 7.08%; under `COc1cc(C2Nc3ccccc3C(=O)N2c2ccc3c(c2)OCCO3)ccc1OCC(C)C` (stereo not shown), 11.8%; under `CCC(C)Sc1nnc(CSc2nc(C)cc(C)n2)n1C` (stereo not shown), 0.227%.
Consider `COc1ccc(OC)c(-n2nnnc2SCC(=O)Nc2ccc(C(=O)N3CCCCC3)cc2)c1`, for which the “hERG current change (%, negative = inhibition) at 1uM” value was 0.144%.
Turning to `CCCSc1nsc(SCCC)c1C(N)=O`, the “hERG current change (%, negative = inhibition) at 1uM” value is recorded as -5.9%.
On to `CCC(C)N(C(=O)COc1ccc(Cl)c2cccnc12)C1CCS(=O)(=O)C1` (stereo not shown), for which the “hERG current change (%, negative = inhibition) at 1uM” value is recorded as 8.91%.
Take `COc1ccccc1NC(=S)NCCc1ccc(S(N)(=O)=O)cc1`: the “hERG current change (%, negative = inhibition) at 1uM” value was 9.24%.
Under `Cc1cc(C(=O)N2CCCC(N3CCN(c4ccccc4C)CC3)C2)nc(C)n1` (stereo not shown) stands 6.8%.
In the case of `O=C(NCc1ccco1)c1cc2n(n1)C(C(F)(F)F)CC(c1ccc(Cl)c(Cl)c1)N2` (stereo not shown), the “hERG current change (%, negative = inhibition) at 1uM” value is listed as -0.317%.
`CN1/C(=C\C(=O)COC(=O)CN2C(=O)C3CC=CCC3C2=O)C(C)(C)c2ccccc21` (stereo not shown): the “hERG current change (%, negative = inhibition) at 1uM” value came to 15.9%.
In the case of `O=C(CSc1nc2ccccc2c(=O)n1NC(=O)Cc1ccccc1)NCc1ccco1`, the “hERG current change (%, negative = inhibition) at 1uM” value was found to be 0.614%.
With `CC(=O)c1cccc(NC(=S)NCCCCc2ccccc2)c1`, the “hERG current change (%, negative = inhibition) at 1uM” value is reported as 12.4%.
For `C=CCc1cc(C)ccc1OCCCn1ccnc1.O=C(O)C(=O)O` the value was 15.4%; for `COc1ccccc1C(=O)NCc1ccco1`, 6.96%.
